# According to PubChem BioAssay (Tox21):
# Where “and” joins values, the source holds several entries; their conditions need not be identical. Equal entries are not always repeated. Inconclusive results, whose numbers are uncertain, are shown with a selection of clear calls. For some assays here: Where the call is inconclusive, the potency comes from a doubtful curve fit. Calls of active or inactive are those of the source. Unless noted, the call rests on the fitted dose curve; in most records, active means well fitted curve in the direction sought with a large enough effect in the repeat runs; inconclusive means weak or mixed curves; inactive means no such curve, though single readings can be large; an effect the other way counts as inactive or inconclusive. Bridge positions count the residues as written; N and C are the ends. Square brackets hold non-standard residues; d marks the D form. Peptide text beside a SMILES is read from it. hArg = N=C(N)NCCCC[C@H](N)C(=O)O; Mpa = O=C(O)CCS
# Legend:
# [1] = qHTS assay to identify small molecule agonists of the progesterone receptor (PR) signaling pathway - cell viability counter screen (AID 1346799; calls by dose curve; further: nearly all actives have a fitted effect of over 45% in size; further: potency means the concentration at half of the fitted maximal effect; on activity change, negative = cytotoxicity: on the % scale 0 is the no-effect control and ±100 the full control effect)
# Summary of the method: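 Luminescence from CellTiter-Glo, added after the beta-lactamase FRET read in the same wells, gave cytotoxicity in PR-UAS-bla HEK293T cells treated with compounds for 16 hr at 37C.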
# [2] = Caspase-3/7 induction in CHO-K1 cells by small molecules, qHTS cell viability counter screen (AID 1346979); details: CellTiter-Fluor fluorescence, 17 h; activity change, negative = cytotoxicity: at 92.4 µM (top of the series); further: nearly all actives have a fitted effect of over 35% in size; further: potency means the concentration at half of the fitted maximal effect
# Summary of the method: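 Cells (CHO-K1, wild type) are plated at 1,500 per well and incubated 5hr. Test compounds in DMSO are then pinned in, followed by 16hr at 37C and 5% CO2. Viability is read by CellTiter-Fluor fluorescence after 1hr.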
# [3] = Human pregnane X receptor (PXR) small molecule agonists, qHTS cell viability counter screen (AID 1346977); further: nearly all actives have a fitted effect of over 50% in size; further: potency means the concentration at half of the fitted maximal effect; on activity change, negative = cytotoxicity: on the % scale 0 is the no-effect control and ±100 the full control effect
# Summary of the method: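 PXR-Luc HepG2, 2,000 cells/well, 5% charcoal-stripped FBS; 5hr settle; cpd 24hr, 37C/5% CO2; CellTiter-Fluor at 23hr, read 1hr later (fluorescence).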
# [4] = Caspase-3/7 induction in HepG2 cells by small molecules, qHTS cell viability counter screen (AID 1346981); further: potency means the concentration at half of the fitted maximal effect; nearly all actives have a fitted effect of over 30% in size
# Summary of the method: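 Multiplexed with the caspase-3/7 assay: HepG2 cells, 16 hr compound treatment, CellTiter-Fluor viability detection by fluorescence.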
# [5] = biological target: Nuclear receptor subfamily 1 group I member 2 (Homo sapiens) (UniProt O75469); experiment: Human pregnane X receptor (PXR) small molecule agonists, qHTS assay (AID 1346982); further: nearly all actives have a fitted effect of over 35% in size; further: potency means the concentration at half of the fitted maximal effect
# Summary of the method: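 We seeded PXR-Luc HepG2 cells in assay medium containing 5% charcoal-stripped FBS, added compounds 5 hr later, incubated 24 hr, and read luminescence with ONE-Glo reagent.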
# [6] = biological target: Cytochrome P450 2D6 (Homo sapiens) (UniProt P10635); experiment: Cytochrome P450 Family 2 Subfamily D Member 6 (CYP2D6) small molecule antagonists: luciferase reporter qHTS assay (AID 1671196); further: nearly all actives have a fitted effect of over 50% in size; further: potency means the concentration at half of the fitted maximal effect; on activity change, negative = inhibition: on the % scale 0 is the no-effect control and ±100 the full control effect
# Chain of UniProt P10635 (P10635 whole entry, looked up): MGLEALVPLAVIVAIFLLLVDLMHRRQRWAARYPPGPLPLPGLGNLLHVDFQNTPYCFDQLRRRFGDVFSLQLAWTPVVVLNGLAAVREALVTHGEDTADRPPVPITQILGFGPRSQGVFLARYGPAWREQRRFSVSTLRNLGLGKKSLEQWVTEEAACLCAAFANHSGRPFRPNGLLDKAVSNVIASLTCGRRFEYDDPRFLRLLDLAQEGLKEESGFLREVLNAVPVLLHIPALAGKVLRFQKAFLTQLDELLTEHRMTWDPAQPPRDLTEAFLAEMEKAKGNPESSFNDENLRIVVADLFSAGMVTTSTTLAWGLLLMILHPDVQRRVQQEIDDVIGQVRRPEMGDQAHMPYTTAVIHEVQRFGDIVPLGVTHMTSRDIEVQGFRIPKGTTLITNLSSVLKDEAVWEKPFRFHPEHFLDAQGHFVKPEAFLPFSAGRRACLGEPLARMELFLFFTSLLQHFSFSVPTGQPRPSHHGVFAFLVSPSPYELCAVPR
# Summary of the method: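 Luminescence (RLU), read 20 min after detection reagent, indicated CYP2D6 conversion of proluciferin to luciferin during a 1 h NADPH-dependent reaction at room temperature.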
# [7] = biological target: Cytochrome P450 2C19 (Homo sapiens) (UniProt P33261); experiment: Cytochrome P450 Family 2 Subfamily C Member 19 (CYP2C19) small molecule antagonists: luciferase reporter qHTS assay (AID 1671197); further: nearly all actives have a fitted effect of over 65% in size; further: potency means the concentration at half of the fitted maximal effect
# Chain of UniProt P33261 (P33261 whole entry, looked up): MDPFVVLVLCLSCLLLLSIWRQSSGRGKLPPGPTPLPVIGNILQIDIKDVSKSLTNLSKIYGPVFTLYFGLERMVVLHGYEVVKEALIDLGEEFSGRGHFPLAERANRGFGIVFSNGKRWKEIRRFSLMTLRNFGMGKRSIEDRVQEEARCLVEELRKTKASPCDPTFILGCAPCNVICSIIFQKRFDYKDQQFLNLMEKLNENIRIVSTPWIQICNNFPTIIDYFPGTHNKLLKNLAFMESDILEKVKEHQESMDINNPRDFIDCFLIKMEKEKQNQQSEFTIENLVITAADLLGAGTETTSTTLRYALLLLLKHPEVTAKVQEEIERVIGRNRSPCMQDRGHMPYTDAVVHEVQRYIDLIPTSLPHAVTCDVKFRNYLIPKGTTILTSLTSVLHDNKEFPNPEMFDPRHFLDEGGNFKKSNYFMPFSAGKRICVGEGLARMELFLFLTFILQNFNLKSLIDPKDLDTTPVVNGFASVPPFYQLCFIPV
# Summary of the method: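 First, compounds are pinned into enzyme-substrate mix and held 10 min at room temperature. Second, NADPH regeneration solution is added and plates incubate 1 h at 37C. Third, detection reagent is added and luminescence read after 20 min.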
# [8] = qHTS assay to identify small molecule antagonists of the TGF-beta/Smad signaling pathway (AID 1346924; active means well fitted inhibition curve with a large enough effect in the signal ratio in the repeat runs, not every such curve was filed as active; inconclusive means weak or mixed curves; the % refers to the signal ratio); details: SBE-bla HEK293T, TGF-beta/Smad reporter, beta-lactamase ratio; activity, negative = inhibition: at 76.8 µM (top of the series) unless noted
# Summary of the method: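 SBE-bla HEK 293T cells were plated overnight, then received compound in DMSO plus TGF-beta1 (added as a 0.25 ng/mL solution) and were incubated 5 h at 37 C. Beta-lactamase reporter activity was read after 2 h at room temperature with LiveBLAzer B/G FRET substrate (ex 405, em 460/530 nm).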
# [9] = biological target: Cytochrome P450 2C9 (Homo sapiens) (UniProt P11712); experiment: Cytochrome P450 Family 2 Subfamily C Member 9 (CYP2C9) small molecule antagonists: luciferase reporter qHTS assay (AID 1671198); further: nearly all actives have a fitted effect of over 50% in size; further: potency means the concentration at half of the fitted maximal effect; on activity change, negative = inhibition: on the % scale 0 is the no-effect control and ±100 the full control effect
# Chain of UniProt P11712 (P11712 whole entry, looked up): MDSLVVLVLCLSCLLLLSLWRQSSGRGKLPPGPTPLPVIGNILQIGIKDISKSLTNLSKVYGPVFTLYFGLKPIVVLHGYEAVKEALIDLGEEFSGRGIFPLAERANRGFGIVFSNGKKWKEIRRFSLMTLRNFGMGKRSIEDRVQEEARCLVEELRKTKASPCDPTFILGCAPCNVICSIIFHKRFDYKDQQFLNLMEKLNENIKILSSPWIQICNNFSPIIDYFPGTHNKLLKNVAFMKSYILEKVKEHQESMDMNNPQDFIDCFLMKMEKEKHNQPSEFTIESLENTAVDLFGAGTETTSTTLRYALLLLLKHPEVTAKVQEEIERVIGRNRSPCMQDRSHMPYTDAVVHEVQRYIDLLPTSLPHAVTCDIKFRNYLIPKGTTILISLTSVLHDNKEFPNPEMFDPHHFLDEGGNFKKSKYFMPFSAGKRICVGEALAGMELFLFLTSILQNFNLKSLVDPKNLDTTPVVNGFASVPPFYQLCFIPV
# Summary of the method: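 CYP2C9 activity was measured with a P450-Glo proluciferin substrate. Enzyme–substrate mix was held with compound for 10 min at room temperature, then NADPH regeneration solution was added for 1 h at 37C. Luciferin product was read as luminescence.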
# [10] = biological target: Nuclear receptor subfamily 1 group I member 2 (Homo sapiens) (UniProt O75469); experiment: CYP3A4 induction through human pregnane X receptor (PXR) by small molecules, qHTS assay (AID 1346984); further: potency means the concentration at half of the fitted maximal effect; nearly all actives have a fitted effect of over 40% in size
# Summary of the method: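 qHTS, concentration-response format: HepG2 DPX-2 line, PXR/CYP3A4-luc. Exposure 24 h, 37C. Substrate Luciferin-IPA 3uM final, 3 h. Detection One-Glo, 30 min RT.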
# [11] = biological target: Nuclear receptor subfamily 1 group I member 2 (Homo sapiens) (UniProt O75469); experiment: Human pregnane X receptor (PXR) activation by small molecules, qHTS assay (AID 1346985); further: nearly all actives have a fitted effect of over 40% in size; further: potency means the concentration at half of the fitted maximal effect
# Summary of the method: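 DPX-2 cells (HepG2 co-transfected with a PXR response element and a CYP3A4-promoter luciferase construct) were seeded at 2,000 per well, rested 5 hr at 37C, then exposed to DMSO-dissolved compounds for 24 hr. Activation was read as luciferase luminescence.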
# [12] = Caspase-3/7 induction in HepG2 cells by small molecules, qHTS assay (AID 1346978); further: on the % scale 0 is the no-effect control and ±100 the full control effect; nearly all actives have a fitted effect of over 15% in size
# Summary of the method: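 Wild-type HepG2 cells (2,000/well) were settled 5 h at 37 C, 5% CO2, then exposed to compounds in DMSO for 17 h. Caspase-3/7 activity was read by luminescence 30 min after adding Caspase-Glo 3/7 reagent at room temperature.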
# [13] = biological target: Nuclear receptor subfamily 1 group I member 2 (Rattus norvegicus) (UniProt Q9R1A7); experiment: Rat pregnane X receptor (rPXR) activation by small molecules, qHTS assay (AID 1346983); details: rPXR luciferase reporter cells, One-Glo luminescence, 24 h; max activation: stronger effect = higher value; further: potency means the concentration at half of the fitted maximal effect; nearly all actives have a fitted effect of over 20% in size
# Chain of UniProt Q9R1A7 (Q9R1A7 whole entry, looked up): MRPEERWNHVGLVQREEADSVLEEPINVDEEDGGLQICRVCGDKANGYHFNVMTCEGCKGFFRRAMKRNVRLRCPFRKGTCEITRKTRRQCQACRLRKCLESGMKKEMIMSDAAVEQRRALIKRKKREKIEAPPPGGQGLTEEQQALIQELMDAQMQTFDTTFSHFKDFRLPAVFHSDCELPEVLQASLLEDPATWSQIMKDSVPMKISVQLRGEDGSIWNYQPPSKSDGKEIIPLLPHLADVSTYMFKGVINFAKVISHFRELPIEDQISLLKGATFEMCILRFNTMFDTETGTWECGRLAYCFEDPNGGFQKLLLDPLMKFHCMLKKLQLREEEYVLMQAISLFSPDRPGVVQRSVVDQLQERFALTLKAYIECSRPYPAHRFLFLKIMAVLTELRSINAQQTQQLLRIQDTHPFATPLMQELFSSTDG
# Summary of the method: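 Cell-based rPXR luciferase reporter assay, 2,000 cells per well, rested 5hr at 37 C before compound addition in DMSO, then 24 hr at 37 C. One-Glo reagent was added and luminescence read after 30 min at room temperature.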
# Tags describe the fitted curve by direction and shape.
compound,measurement,setting,value
NC(=O)[C@@H]1CSSCCC(=O)N[C@@H](CCCCN=C(N)N)C(=O)NCC(=O)N[C@@H](CC(=O)O)C(=O)N[C@@H](Cc2c[nH]c3ccccc23)C(=O)N2CCC[C@H]2C(=O)N1 ([Mpa][hArg]GDWPC-NH2; disulfide 1-7),Potency,[1],inactive
same,Potency,[2],active: 10.6 µM
CC(=O)OCCN(CCOC(C)=O)c1ccc(N=Nc2ccc([N+](=O)[O-])cc2C#N)cc1,Potency,[1],"inconclusive: 48.6 µM [rising, partial curve]"
same,Potency,[3],"inconclusive: 48.6 µM [cytotoxic, partial curve]"
same,Potency,[4],inconclusive: 68.6 µM [cytotoxic]
same,Potency,[5],"inconclusive: 30.6 µM [activator, partial curve]"
same,Potency,[6],"inconclusive: 11.2 µM [inhibitor, full curve, poor fit]"
same,Potency,[7],"inconclusive: 89.4 µM [inhibitor, single point]"
Cc1ccc([N+](=O)[O-])cc1Cl,Potency,[1],"inconclusive: 1.39 µM [cytotoxic, single point]"
same,"activity, negative = inhibition",[8],inconclusive: 8.98%
same,Potency,[9],inactive
CN(C(=O)c1c(O)c2ccccc2n(C)c1=O)c1ccccc1,Potency,[1],"inconclusive: 7.5 µM [cytotoxic, single point]"
same,"activity, negative = inhibition",[8],inconclusive: -3.54% [at 35.3 µM]
same,Potency,[6],inactive
OCCN1CCN(CCCN2c3ccccc3C=Cc3ccccc32)CC1,Potency,[1],"inconclusive: 15 µM [cytotoxic, partial curve, poor fit]"
same,Potency,[3],active: 23.7 µM
same,Potency,[4],"inconclusive: 29.8 µM [cytotoxic, single point]"
same,Potency,[10],"inconclusive: 7.94 µM [activator, single point]"
same,Potency,[11],active: 10 µM
same,Potency,[9],inactive
N[C@H](C(=O)O)c1ccc(O)cc1,"activity change, negative = cytotoxicity",[1],inactive: -6.4% [at 19 µM]
same,"activity change, negative = cytotoxicity",[3],inactive: 0.445% [at 19 µM]
same,"activity change, negative = inhibition",[6],inactive: -10.2% [at 23.6 µM]
same,"activity change, negative = inhibition",[7],inactive: -11.6% [at 23.6 µM]
c1ccc2c(c1)ccc1ncccc12,Potency,[1],"inconclusive: 27.1 µM [rising, single point]"
same,"activity, negative = inhibition",[8],inconclusive: -0.217% and inconclusive: 3.14%
same,Potency,[12],inactive
same,Potency,[6],"active: 7.91 µM and inconclusive: 50.2 µM [inhibitor, partial curve]"
CCCOCCO,Potency,[1],inactive
same,"activity, negative = inhibition",[8],inconclusive: -32.4%
same,Potency,[9],inactive
CCCCCCCCSCCO,Potency,[1],inactive
same,Potency,[3],inactive
CC[C@H]1OC(=O)[C@H](C)[C@@H](O[C@H]2C[C@@](C)(OC)[C@@H](O)[C@H](C)O2)[C@H](C)[C@@H](O[C@@H]2O[C@H](C)C[C@H](N(C)C)[C@H]2O)[C@](C)(O)C[C@@H](C)/C(=N\OCOCCOC)[C@H](C)[C@@H](O)[C@]1(C)O,Potency,[1],"inconclusive: 40.4 µM [cytotoxic, single point]"
same,Potency,[3],"inconclusive: 28.6 µM [cytotoxic, single point]"
same,Potency,[5],"inconclusive: 14.3 µM [activator, single point]"
same,Potency,[11],inactive
COCCOC,Potency,[1],"inconclusive: 3.68 µM [cytotoxic, full curve]"
same,"activity, negative = inhibition",[8],inconclusive: 4.94%
same,Potency,[3],"inconclusive: 11.6 µM [cytotoxic, full curve]"
CC(=O)c1ccc2c(c1)[C@H](NC(=O)c1ccc(F)cc1)[C@@H](O)C(C)(C)O2,Potency,[1],"inconclusive: 14.5 µM [rising, full curve, poor fit]"
same,Potency,[2],inconclusive: 64.6 µM [cytotoxic]
same,Potency,[4],"inconclusive: 57.5 µM [cytotoxic, single point]"
OCCC(F)(F)C(F)(F)C(F)(F)C(F)(F)C(F)(F)C(F)(F)F,Potency,[1],"inconclusive: 77 µM [rising, single point]"
same,Potency,[2],inactive
same,Potency,[6],inactive
CC12CCC(CC1)C(C)(C)O2,Potency,[1],"inconclusive: 7.5 µM [cytotoxic, single point]"
same,Potency,[2],"inconclusive: 33.5 µM [cytotoxic, single point]"
O=c1[nH][nH]c(=O)c2cc([N+](=O)[O-])ccc12,Potency,[1],inactive
same,Potency,[2],inactive
same,Potency,[4],"inconclusive: 49.2 µM [cytotoxic, partial curve, poor fit]"
CC(CCc1ccc(O)cc1)NCCc1ccc(O)c(O)c1 (stereo not given),Potency,[1],inactive
same,Potency,[2],"inconclusive: 26.6 µM [cytotoxic, partial curve]"
CN(CCCN1c2ccccc2CCc2ccccc21)CC(=O)c1ccc(Cl)cc1,Potency,[1],inactive
same,Potency,[2],inconclusive: 29.8 µM [cytotoxic]
same,Potency,[13],"inconclusive: 31.6 µM [activator, partial curve]"
same,Potency,[11],active: 22.4 µM
CCCCCC[C@@H](CCC)C(=O)O,Potency,[1],"inconclusive: 13.3 µM [cytotoxic, partial curve, poor fit]"
same,Potency,[2],"inconclusive: 13.3 µM [rising, partial curve, poor fit]"
ON=C1CCCC1,Potency,[1],active: 63.3 µM
same,Potency,[5],inactive
same,Potency,[6],"inconclusive: 41.3 µM [inhibitor, partial curve]"
same,Potency,[9],active: 41.3 µM
O=[N+]([O-])c1ccc(Cl)cc1Cl,Potency,[1],"inconclusive: 24 µM [rising, partial curve, poor fit]"
same,Potency,[6],"inconclusive: 62.5 µM [inhibitor, partial curve]"
